Reference: the antibiotic and cytotoxicity screens of Wong et al. (2023)
The other results are listed elsewhere or left out.

Legend:
[1] = tested on: HSkMC (human skeletal muscle cells); assay: cytotoxicity call (relative viability < 0.9); conditions: 10 µM
[2] = tested on: S. aureus RN4220; assay: growth inhibition call (relative growth <= 0.2); conditions: 50 µM

| Compound | cytotoxicity call [1] | growth inhibition call [2] |
| --- | --- | --- |
| O=C(C[C@@H]1CC[C@H](NC(=O)Cc2ccccn2)[C@@H](CO)O1)NCCCN1CCOCC1 | inactive | inactive |
| C[C@@H]1CN([C@H](C)CO)C(=O)CCCn2nncc2CO[C@@H]1CN(C)S(=O)(=O)c1ccc(-c2ccccc2)cc1 | inactive | inactive |
| COc1ccc(NC(=O)Nc2ccc3c(c2)[C@H]2C[C@@H](CC(=O)N4CCN(C)CC4)O[C@H](CO)[C@H]2O3)cc1 | inactive | inactive |
| COc1cc2c(cc1OC)C(=O)C(CC1CCN(Cc3ccccc3)CC1)C2.Cl (stereo unspecified) | inactive | inactive |
| COc1ccc(OC)c(S(=O)(=O)N2[C@@H]3CC[C@@H](C3)[C@H]2c2nc3cccc(OCc4ccc(F)cc4)c3[nH]2)c1 | inactive | inactive |
| C[C@@H]1CCCCO[C@@H](CN(C)C(=O)Nc2ccc(C(F)(F)F)cc2)[C@@H](C)CN([C@H](C)CO)C(=O)c2cc(NC(=O)c3ccncc3)ccc2O1 | inactive | inactive |
| C[C@@H]1CCCCO[C@@H](CN(C)S(=O)(=O)c2ccccc2)[C@H](C)CN([C@@H](C)CO)C(=O)c2cc(NS(=O)(=O)c3ccc(Cl)cc3)ccc2O1 | inactive | inactive |
| C[C@H](CO)N1C[C@H](C)[C@H](CN(C)Cc2ccc(C(F)(F)F)cc2)OCc2ccccc2-c2c(n(C)c3ccccc23)C1=O | inactive | inactive |
| CC(C)NC(=O)Nc1cccc2c1O[C@@H](CN(C)Cc1ccc(Oc3ccccc3)cc1)[C@H](C)CN([C@H](C)CO)C2=O | inactive | inactive |
| C[C@@H]1CN([C@@H](C)CO)C(=O)CCCn2nncc2CO[C@H]1CN(C)S(=O)(=O)c1ccc(Cl)cc1 | inactive | inactive |
| CNC(=O)[C@@]12CCC3(CCN(C(=O)COC)CC3)[C@H]1CN(S(C)(=O)=O)C2 | inactive | inactive |
| O=c1nc(NCc2cccnc2)cn[nH]1 | inactive | inactive |
| c1ncc(CC2CCNCC2)[nH]1 | inactive | inactive |
| COc1ccc(S(=O)(=O)Nc2ccc3c(c2)C(=O)N([C@H](C)CO)C[C@@H](C)[C@@H](CN(C)Cc2ccc(Cl)c(Cl)c2)O3)cc1 | inactive | inactive |
| C[C@H](CO)N1C[C@H](C)[C@H](CN(C)Cc2ccc3c(c2)OCO3)Oc2ccc(NC(=O)Nc3cccc4ccccc34)cc2C1=O | inactive | inactive |
| O=c1[nH]snc1N1CCCCC1 | inactive | inactive |
| C[C@H]1CN([C@@H](C)CO)S(=O)(=O)c2ccc(Br)cc2O[C@@H]1CN(C)C(=O)Nc1ccc2c(c1)OCO2 | inactive | inactive |
| C[C@@H]1CN([C@@H](C)CO)C(=O)Cc2cc(NS(=O)(=O)c3ccc(Cl)cc3)ccc2O[C@@H]1CN(C)Cc1ccc(-c2ccccc2)cc1 | inactive | inactive |
| COc1cc2c(cc1OC)-c1cc3ccc(OC)c(OC)c3c[n+]1CC2.[Cl-] | inactive | inactive |
| Cc1noc(C)c1S(=O)(=O)Nc1ccc2c(c1)C(=O)N([C@H](C)CO)C[C@@H](C)[C@@H](CN(C)Cc1ccccc1)OCCCC[C@@H](C)O2 | inactive | inactive |
| CC(C)NC(=O)N(C)C[C@@H]1OCc2cnnn2CCCC(=O)N([C@H](C)CO)C[C@@H]1C | inactive | inactive |
| C[C@@H]1CCCCO[C@@H](CN(C)S(=O)(=O)c2ccccc2)[C@H](C)CN([C@H](C)CO)C(=O)c2cc(NC(=O)Nc3ccc(C(F)(F)F)cc3)ccc2O1 | inactive | inactive |
| Nc1oncc1-c1ccc(Cl)cc1 | inactive | inactive |
| COCC(=O)N1C[C@H](C)[C@@H](OC)CN(C)C(=O)c2cc(NC(=O)Nc3ccccc3)ccc2OC[C@@H]1C | inactive | inactive |

| Compound | cytotoxicity call [1] | growth inhibition call [2] |
| --- | --- | --- |
| Cc1noc(C)c1NC(=O)Nc1ccc2c(c1)C(=O)N([C@H](C)CO)C[C@@H](C)[C@@H](CN(C)C(=O)Nc1ccc(C(F)(F)F)cc1)O2 | inactive | inactive |
| CNCc1cccc2ccccc12 | inactive | inactive |
| CCN(CC)CCNC(=O)c1cc(Br)c(N)cc1OC | inactive | inactive |
| Cc1ccc(S(=O)(=O)Nc2ccc3c(c2)C(=O)N([C@@H](C)CO)C[C@H](C)[C@H](CN(C)CC2CCCCC2)OCCCC[C@@H](C)O3)cc1 | inactive | inactive |
| C[C@@H]1CN([C@@H](C)CO)C(=O)Cc2cc(NS(=O)(=O)c3ccc(Cl)cc3)ccc2O[C@H]1CN(C)Cc1ccc(C(F)(F)F)cc1 | inactive | inactive |
| C[C@H]1CN([C@@H](C)CO)C(=O)Cc2cc(NC(=O)Nc3ccc(F)cc3)ccc2O[C@H]1CN(C)C(=O)Nc1ccc(C(F)(F)F)cc1 | inactive | inactive |
| CC(C)NC(=O)Nc1ccc2c(c1)C(=O)N([C@H](C)CO)C[C@@H](C)[C@H](CN(C)C(=O)Nc1cccc3ccccc13)OCCCC[C@H](C)O2 | inactive | inactive |
| CC(C)C[C@H](NP(=O)(O)O[C@H]1O[C@@H](C)[C@@H](O)[C@@H](O)[C@@H]1O)C(=O)N[C@H](Cc1c[nH]c2ccccc12)C(=O)O | inactive | inactive |
| C[C@@H]1CN([C@H](C)CO)C(=O)Cc2cc(NS(=O)(=O)c3cn(C)cn3)ccc2O[C@H]1CN(C)Cc1ccc(C(=O)Nc2ccccc2N)cc1 | inactive | inactive |
| CCS(=O)(=O)N1CCC(C(=O)N(C)C)CC1 | inactive | inactive |
| O=C1O[C@H](c2ccccc2)[C@H](c2ccccc2)N2[C@H]1[C@@H](C(=O)N1CCN(c3ncccn3)CC1)[C@]1(C(=O)Nc3ccc(C#CC4(O)CCCCCC4)cc31)[C@H]2c1ccc(OCCO)cc1 | inactive | inactive |
| COCC#Cc1cnc2c(c1)C(=O)N([C@@H](C)CO)C[C@@H](C)[C@H](CN(C)C(=O)Nc1ccc(OC)cc1)O2 | inactive | inactive |
| CC1=C(C)C(=O)C(C(CCCCCC(=O)O)c2ccccc2)=C(C)C1=O (stereo unspecified) | inactive | inactive |
| C[C@H]1CN([C@@H](C)CO)C(=O)c2cc(C#Cc3ccc(F)cc3)cnc2O[C@H]1CN(C)CC1CCOCC1 | inactive | inactive |
| CCCOc1cc(N)ccc1C(=O)OCCN(CC)CC.Cl | inactive | inactive |
| C[C@H]1CN([C@@H](C)CO)C(=O)c2cc(NS(=O)(=O)c3ccc(Cl)cc3)ccc2O[C@@H]1CN(C)C(=O)Nc1ccc(C(F)(F)F)cc1 | inactive | inactive |
| COc1ccc(NC(=O)Nc2ccc3c(c2)C(=O)N([C@@H](C)CO)C[C@H](C)[C@@H](CN(C)Cc2ccccc2)OCCCC[C@H](C)O3)cc1 | inactive | inactive |
| CC(C)(C)[S@](=O)N1Cc2cc(C(=O)NCCN3CCCCC3)nc(-c3cccc(-c4ccc(C#N)cc4)c3)c2[C@@H]1CCO | inactive | inactive |
| C[C@H](CO)N1C[C@H](C)[C@@H](CN(C)S(C)(=O)=O)Oc2c(NC(=O)NC3CCCCC3)cccc2C1=O | inactive | inactive |
| COc1ccc(S(=O)(=O)Nc2ccc3c(c2)CC(=O)N([C@H](C)CO)C[C@@H](C)[C@@H](CN(C)C(=O)Nc2c(C)noc2C)O3)cc1 | inactive | inactive |
| C[C@@H]1CCCCO[C@H](CN(C)S(=O)(=O)c2cn(C)cn2)[C@@H](C)CN([C@H](C)CO)C(=O)c2cc(N(C)C)ccc2O1 | inactive | inactive |
| NCc1ccc(C(=O)N2CCCCC2)cc1 | inactive | inactive |
| Cc1ccc(S(=O)(=O)Nc2ccc3c(c2)CC(=O)N([C@@H](C)CO)C[C@H](C)[C@@H](CN(C)Cc2ccc(Cl)c(Cl)c2)O3)cc1 | active | inactive |
| C[C@@H]1CN([C@H](C)CO)C(=O)c2cc(NC(=O)CCCN(C)C)ccc2O[C@@H](C)CCCCO[C@H]1CN(C)S(=O)(=O)c1cn(C)cn1 | inactive | inactive |
